Results on 90 molecules are retold here after paper PMC4336329 (PLoS ONE, 2015).

Hit rate of the full screen: of about 310,000 compounds, about 14,000 (4.5%) showed an effect of 50% or more. Effects have a minus sign here. The list shows a part of the results.
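Also: peak tail current of the secondary pulse compared with the same well before compound.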

The assay deals with human ether-à-go-go-related gene (hERG) potassium channel (human, UniProt Q12809). Kind of assay: primary screen, population patch clamp on CHO cells stably expressing hERG.
human ether-à-go-go-related gene (hERG) potassium channel, sequence (Q12809 whole entry, looked up): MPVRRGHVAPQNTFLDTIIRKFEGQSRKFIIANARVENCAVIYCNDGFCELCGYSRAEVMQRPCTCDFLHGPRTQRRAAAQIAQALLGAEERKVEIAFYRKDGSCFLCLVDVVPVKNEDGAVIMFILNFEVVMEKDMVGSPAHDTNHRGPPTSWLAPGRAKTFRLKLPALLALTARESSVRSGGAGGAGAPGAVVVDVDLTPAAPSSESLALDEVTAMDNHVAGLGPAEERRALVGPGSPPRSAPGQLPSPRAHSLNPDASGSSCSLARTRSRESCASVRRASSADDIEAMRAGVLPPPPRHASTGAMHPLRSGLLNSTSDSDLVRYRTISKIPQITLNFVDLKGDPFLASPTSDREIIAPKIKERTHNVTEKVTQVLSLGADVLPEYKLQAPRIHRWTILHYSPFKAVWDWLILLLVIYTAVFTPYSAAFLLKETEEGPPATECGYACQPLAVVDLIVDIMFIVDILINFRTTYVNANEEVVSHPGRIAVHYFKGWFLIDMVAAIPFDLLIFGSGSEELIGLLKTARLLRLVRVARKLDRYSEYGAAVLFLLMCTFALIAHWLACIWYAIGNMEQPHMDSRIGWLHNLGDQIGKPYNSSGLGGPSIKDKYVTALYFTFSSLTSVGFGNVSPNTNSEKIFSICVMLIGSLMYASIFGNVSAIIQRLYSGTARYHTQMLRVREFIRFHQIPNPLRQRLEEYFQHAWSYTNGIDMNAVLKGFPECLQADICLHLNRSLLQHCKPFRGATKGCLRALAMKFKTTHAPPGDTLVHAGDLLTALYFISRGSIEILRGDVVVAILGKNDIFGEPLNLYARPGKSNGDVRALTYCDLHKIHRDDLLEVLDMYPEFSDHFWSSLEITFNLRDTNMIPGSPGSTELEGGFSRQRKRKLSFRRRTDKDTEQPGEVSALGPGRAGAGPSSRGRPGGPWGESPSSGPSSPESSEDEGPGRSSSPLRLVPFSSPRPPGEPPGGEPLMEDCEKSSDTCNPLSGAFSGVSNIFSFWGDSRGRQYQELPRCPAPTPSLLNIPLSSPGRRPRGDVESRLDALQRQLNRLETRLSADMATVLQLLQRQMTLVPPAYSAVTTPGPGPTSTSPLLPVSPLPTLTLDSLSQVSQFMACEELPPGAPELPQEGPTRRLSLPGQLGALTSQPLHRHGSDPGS
For the molecule `O=C(O)c1ccccc1-c1ccccc1C(=O)Nc1ccccc1-c1ccccc1`, the “hERG current change (%, negative = inhibition) at 10uM” value is reported as 19.8%.
With `O=C(COc1ccc2ccccc2c1)NC1CC1`, the “hERG current change (%, negative = inhibition) at 10uM” value was found to be 2.77%.
As for `COc1ccc(N2CCN(CCCNC(=O)Cn3c(=O)c4cccn4c4ccccc43)CC2)cc1`, the “hERG current change (%, negative = inhibition) at 10uM” value was -43.7%.
Regarding `Nc1nc(NC(=O)c2ccc(F)cc2)ns1`, the “hERG current change (%, negative = inhibition) at 10uM” value came to 7.86%.
With `CCOCCc1c(O)nc(SC)[nH]c1=O` the figure was 15.9%; with `O=C(CN(C(=O)CCC(=O)Nc1ccccn1)c1ccc(F)cc1)NCCc1ccccc1`, 16.8%; with `COCCNC(=O)c1cn(C)c2ccc(S(=O)(=O)N3CCCC3)cc2c1=O`, 11.6%.
In the case of `O=C1CSC(c2cccnc2)N1Cc1ccc(Cl)cc1Cl` (stereo not drawn), the “hERG current change (%, negative = inhibition) at 10uM” value amounted to 0.0731%.
Take `Cc1nnc(SCCN2C(=O)c3ccccc3C2=O)nc1C`: the “hERG current change (%, negative = inhibition) at 10uM” value is -1.84%.
As for `CCOC(=O)c1cccc2c1-c1ccccc1/C2=N/O`, the “hERG current change (%, negative = inhibition) at 10uM” value is on record as -2.26%.
In the case of `COc1ccc(NC(=O)CSc2nc3c(c(=O)n2-c2ccc(F)cc2)SCC3)c(OC)c1`, the “hERG current change (%, negative = inhibition) at 10uM” value was -19.7%.
Consider `C#CCOCCOCCOCCNc1nc(N2CCN(C(=O)Cn3cc(CCCC[NH3+])nn3)CC2)nc(N2CCN(C(=O)Cn3cc(CC(C)O)nn3)CC2)n1.[Cl-]` (stereo not drawn), for which the “hERG current change (%, negative = inhibition) at 10uM” value is reported as -16.7%.
In the case of `Cc1ccc(Cn2nc(C)c(NC(=O)c3cc(C)no3)c2C)cc1` it was -2.22%; in that of `CC1(C)CC2(CC(c3ccccc3)Oc3cc(O)ccc32)NC(=S)N1` (stereo not drawn), -1.82%.
For `CN1CCC(N(C)S(=O)(=O)c2ccc(F)cc2F)CC1`, the “hERG current change (%, negative = inhibition) at 10uM” value was 3.63%.
`CN(C)c1ccnc2sc3c(SCc4ccc(Cl)cc4)ncnc3c12`: the “hERG current change (%, negative = inhibition) at 10uM” value is 11.5%.
Turning to `CCC(C)N(C(=O)CSc1nc(C)c(C)c(C)c1C#N)C1CCS(=O)(=O)C1` (stereo not drawn), the “hERG current change (%, negative = inhibition) at 10uM” value is 8.92%.
On to `Cc1ccc(-n2c(Cn3ncc4ccccc4c3=O)n[nH]c2=S)cc1`, for which the “hERG current change (%, negative = inhibition) at 10uM” value is -2.75%.
`CC(=O)c1cc2c(cc1NS(=O)(=O)c1ccc(C)cc1)OCO2`: the “hERG current change (%, negative = inhibition) at 10uM” value is on record as -10.1%.
In the case of `COc1ccc(OC)c(Nc2nc(NCCCN(C)C)nc(N)c2[N+](=O)[O-])c1` it was -5.73%; in that of `COc1ccccc1N(CC(=O)N/N=C/c1ccc(SC)cc1)S(C)(=O)=O`, -3.36%; in that of `COc1cccc(C(C(=O)NC2CCCC2)N(C(=O)c2ccco2)c2cccc(C(C)=O)c2)c1OC` (stereo not drawn), 13.9%.
With `O=[N+]([O-])c1ccc(/C=C/c2ccc3cccc(O)c3n2)cc1` the figure was 18.6%; with `COc1cc(C(=O)OC2CSCC2NC(=O)c2ccccc2)cc(OC)c1OC` (stereo not drawn), -19.5%; with `O=C(Nc1ccc(NC(=O)C2CC2)nc1)c1ccccn1`, -8.12%.
In the case of `CN(C)CCN1C(=O)C(=O)/C(=C(/O)c2ccc(S(=O)(=O)N3CCOCC3)cc2)C1c1ccc(Br)cc1` (stereo not drawn), the “hERG current change (%, negative = inhibition) at 10uM” value came out at 10%.
As to `Cn1c(SCC(=O)N2CCOCC2)nnc1-c1ccccc1`, the “hERG current change (%, negative = inhibition) at 10uM” value is on record as 4.92%.
Turning to `O=C(O)CN1C(=O)CN=C(c2ccccn2)c2cc(Cl)ccc21`, the “hERG current change (%, negative = inhibition) at 10uM” value was determined as 17.5%.
On to `O=c1nc(-c2ccccc2)cc(C(F)(F)F)[nH]1`, for which the “hERG current change (%, negative = inhibition) at 10uM” value came out at 17.8%.
In the case of `CCOc1ccc(-n2nnnc2-c2nc3ccccc3s2)cc1` it was 11.9%.
As for `CC(=O)c1cccc(NC(=O)N2CC(C)OC(C)C2)c1` (stereo not drawn), the “hERG current change (%, negative = inhibition) at 10uM” value is reported as 10.4%.
Take `Cn1cnc([N+](=O)[O-])c1N=C(N)N`: the “hERG current change (%, negative = inhibition) at 10uM” value is on record as 17.5%.
With `O=C(CSCc1c(F)cccc1F)Nc1ccccc1` the figure was 12.3%.
Take `COc1ccc(CCNC(=O)Cn2nc([N+](=O)[O-])c(Br)c2C)cc1OC`: the “hERG current change (%, negative = inhibition) at 10uM” value is reported as -0.503%.
For the molecule `Cc1ccc(CC(=O)NCc2ccc(F)cc2)cc1`, the “hERG current change (%, negative = inhibition) at 10uM” value worked out at 5.55%.
Turning to `CCCc1nnc(SCC(=O)Nc2cccc(Cl)c2Cl)o1`, the “hERG current change (%, negative = inhibition) at 10uM” value turned out to be 3.7%.
For the molecule `CCN(CC(=O)NCc1ccc(F)cc1)C(=O)C1CCN(C(=O)Nc2ccccc2)CC1`, the “hERG current change (%, negative = inhibition) at 10uM” value is on record as -7.79%.
`Cc1csc2nc(O)c(C(=O)NCC3CCCO3)c(=O)n12` (stereo not drawn): the “hERG current change (%, negative = inhibition) at 10uM” value is reported as 1.89%.
Take `C=CCC(CC=C)(NC(=O)c1ccccc1)c1ccccc1`: the “hERG current change (%, negative = inhibition) at 10uM” value amounted to 4.4%.
Regarding `Cc1ccc(C(=O)/C=C2\NCC(C)NC2=O)cc1` (stereo not drawn), the “hERG current change (%, negative = inhibition) at 10uM” value is on record as 6.43%.
As to `CN(Cc1nc2ccccc2n1C)C(=O)c1ccco1`, the “hERG current change (%, negative = inhibition) at 10uM” value is 16.5%.
With `CCOC(=O)C1CCCN(C(=O)CSCc2ccccc2)C1` (stereo not drawn) the figure was 0.048%.
In the case of `CC1c2cc3c(cc2CCN1CC(=O)Nc1ccc(S(=O)(=O)N2CCCC2)cc1)OCCCO3` (stereo not drawn), the “hERG current change (%, negative = inhibition) at 10uM” value is on record as 3.55%.
Regarding `CNC(=O)Nc1cc(C(C)(C)C)no1`, the “hERG current change (%, negative = inhibition) at 10uM” value was 8.95%.
`Cn1c(=NC(=O)CSCC(=O)N2CCCC2)sc2ccccc21`: the “hERG current change (%, negative = inhibition) at 10uM” value is -5.34%.
In the case of `COc1cc(OC)cc(C(=O)NNC(=O)C(=O)Nc2cc(OC)c(Cl)cc2OC)c1` it was 16.8%.
In the case of `CCNCC(=O)Nc1ccc(N2CCOCC2)cc1` it was 25.9%; in that of `CC(=O)N1CCc2cc(C(=O)CN3CCN(c4ccccn4)CC3)ccc21`, -2.87%; in that of `Cc1ccc2nc3c(cc2c1)c(NC(=O)c1cccnc1)nn3C`, -1.27%.
Consider `Cc1ccc(C2(C)NC(=O)N(CC(=O)Nc3ccc(-c4nc5ccc(C)cc5s4)cc3)C2=O)cc1` (stereo not drawn), for which the “hERG current change (%, negative = inhibition) at 10uM” value was 17.4%.
With `O=C(Nc1ccc2c(c1)OCCO2)c1coc2ccccc2c1=O` the figure was -0.238%; with `CNCCCOc1ccc2c(c1)CCC2.O=C(O)C(=O)O`, 0.363%; with `COC(=O)C1(O)CC(C(C)C)=NN1C(=O)c1ccccc1` (stereo not drawn), 26.8%.
In the case of `CCOC(=O)c1[nH]c2cc(OC)c(OC)cc2c1NC(=O)c1ccc2c(c1)OCO2` it was -4.45%; in that of `COC(=O)c1c(C)nn(-c2ccccc2)c1N`, 10.7%.
On to `Cc1nnc(NC(=O)c2sc3ccccc3c2Cl)s1`, for which the “hERG current change (%, negative = inhibition) at 10uM” value is -2.23%.
Regarding `CC(C)(C)OC(=O)N1CCC[C@H]1C(=O)O`, the “hERG current change (%, negative = inhibition) at 10uM” value was found to be 6.78%.
With `Cc1ccc(Sc2ncccc2C(=O)O)cc1C`, the “hERG current change (%, negative = inhibition) at 10uM” value is on record as 22.2%.
Regarding `CCOc1ccc(S(=O)(=O)N2CCN(C(=O)CN3C(=O)NC4(CCCC4)C3=O)CC2)cc1`, the “hERG current change (%, negative = inhibition) at 10uM” value is given as -14.1%.
In the case of `CCN1CCCC1CNC(=O)c1cc2c(C)nc3ccccc3c2o1` (stereo not drawn) it was -12%.
With `Cc1ccc(S(=O)(=O)N2CCC(C(=O)Nc3nnc(-c4ccc(F)cc4)s3)CC2)cc1` the figure was -0.696%; with `Cc1ccc(CNC(=O)c2ccc3c(=O)c(O)c(-c4ccc(C)cc4)[nH]c3c2)cc1`, 17.4%; with `COc1ccc(-c2nc3ccccc3c(=O)n2CCOc2cc(C)ccc2C)cc1`, 26.6%.
Consider `O=C(CSc1ccccc1)Nc1cccc(NC(=O)c2ccco2)c1`, for which the “hERG current change (%, negative = inhibition) at 10uM” value was -17.8%.
In the case of `O=C(O)C(Cc1cnc[nH]1)NS(=O)(=O)c1ccc(Br)cc1` (stereo not drawn) it was 2.95%; in that of `C=CC[n+]1c(C)csc1Nc1cccc(Br)c1.[Br-]`, -6.64%; in that of `Cn1cccc1C(=O)OCC(=O)NC(=O)NC1CCCCC1`, 11.8%.
In the case of `CCOC(=O)c1sc2c(c1C)C(c1cccs1)C1=C(CCCC1=O)N2` (stereo not drawn), the “hERG current change (%, negative = inhibition) at 10uM” value worked out at 8.89%.
`O=C(NCc1csc(-c2cccs2)n1)C1CC1`: the “hERG current change (%, negative = inhibition) at 10uM” value worked out at 14.5%.
With `CCc1cc2c(=O)n(CCCOC)c(SCC(=O)Nc3oc(C)c4c(C)n[nH]c(=O)c34)nc2s1` the figure was -1.43%.
In the case of `FC(F)(F)c1ccc(-c2csc(-c3ccno3)n2)cc1`, the “hERG current change (%, negative = inhibition) at 10uM” value is listed as 1.72%.
Take `C/C(Cn1nnc([N+](=O)[O-])n1)=N\NC(=O)c1ccc(O)cc1`: the “hERG current change (%, negative = inhibition) at 10uM” value was found to be 17.8%.
Turning to `CC(C)(C)n1nnnc1C(c1ccc(C(F)(F)F)cc1)N(Cc1ccccc1)Cc1ccco1` (stereo not drawn), the “hERG current change (%, negative = inhibition) at 10uM” value came to 2.52%.
For the molecule `Clc1ccc(-c2csc(=Nc3cccnc3)n2CCCn2ccnc2)cc1Cl`, the “hERG current change (%, negative = inhibition) at 10uM” value is on record as -67.3%.
As to `Cc1cc(=O)[nH]c(S)c1C#N`, the “hERG current change (%, negative = inhibition) at 10uM” value turned out to be 8.46%.
In the case of `COCCn1c(SCC(=O)Nc2ccccc2OC)nnc1-c1ccco1` it was -13.6%; in that of `C=CCNC(=O)/C(C#N)=C\c1cc(Cl)c(O)c(OCC)c1`, -0.608%.
In the case of `CC(C)(C)c1ccc(S(=O)(=O)N2CCC(O)(c3ccc(Cl)cc3)CC2)cc1` it was 8.47%.
For `CN(CCOc1ccccc1)C(=O)c1ccc2c(c1)OCO2`, the “hERG current change (%, negative = inhibition) at 10uM” value is recorded as -13.8%.
With `Cc1onc(-c2ccccc2)c1C(=O)NC(=S)Nc1sc2c(c1C#N)CCC(C)C2` (stereo not drawn) the figure was 13.1%.
In the case of `CCOC(=O)c1c(NC(=O)c2ccc(N3C(=O)C4C5C=CC(C5)C4C3=O)cc2)sc2c1CCCC2` (stereo not drawn) it was 15.2%.
In the case of `CCOc1ccc(NC(=S)N2CCC(C(O)(c3ccccc3)c3ccccc3)CC2)cc1`, the “hERG current change (%, negative = inhibition) at 10uM” value is -13%.
As for `O=C(O)c1ccc(O)c(O)c1`, the “hERG current change (%, negative = inhibition) at 10uM” value was 14.7%.
On to `N#CC1=C(N)N(c2ccc(Cl)c(Cl)c2)C(=O)C1`, for which the “hERG current change (%, negative = inhibition) at 10uM” value is given as 12.8%.
Regarding `COc1ccc(CCCc2nnc(SCC(=O)Nc3cccc(C)c3)o2)cc1`, the “hERG current change (%, negative = inhibition) at 10uM” value is on record as -4.58%.
On to `CCOc1ccc2c(c1)c1nc3ccccc3nc1n2C`, for which the “hERG current change (%, negative = inhibition) at 10uM” value is recorded as 13.8%.
Regarding `CCCCN(CC)Cc1c(C)[nH]c2ccccc2c1=O`, the “hERG current change (%, negative = inhibition) at 10uM” value is on record as -20.7%.
With `O=C(C1=NN[C@@H]2C(=O)N(c3cccc(C(F)(F)F)c3)C(=O)[C@H]12)c1ccc2ccccc2n1` the figure was -17.6%; with `NNC(=O)COc1ncn(-c2ccccc2)n1`, 18%.
Consider `CCCCCCn1c(=O)c(C(=O)Nc2nnc(C)s2)c(O)c2ccccc21`, for which the “hERG current change (%, negative = inhibition) at 10uM” value was -1.74%.
